# Experimental data as given in the antibiotic and cytotoxicity screens of Wong et al. (2023).
# The other results are listed elsewhere or left out.
# What was measured:
# HSkMC = human skeletal muscle cells; assay: cytotoxicity call (relative viability < 0.9); settings: 10 µM
# HepG2 = assay: cytotoxicity call (relative viability < 0.9); settings: 10 µM
# S. aureus RN4220 = assay: growth inhibition call (relative growth <= 0.2); settings: 50 µM
SMILES,cytotoxicity call (HSkMC),cytotoxicity call (HepG2),growth inhibition call (S. aureus RN4220)
COc1cccc(NC(=O)N[C@@H]2CC[C@H](CC(=O)N3CCOCC3)O[C@@H]2CO)c1,inactive,inactive,inactive
O=C(CN1CCOCC1)NCC[C@@H]1CC[C@H](NC(=O)c2ccc3c(c2)OCO3)[C@H](CO)O1,inactive,inactive,inactive
CCS(=O)(=O)Nc1ccc2c(c1)C(=O)N(C)[C@H]1CC[C@@H](CC(=O)NCc3ccccc3F)O[C@H]1CO2,inactive,inactive,inactive
CN(C)CCCNC(=O)C[C@@H]1C=C[C@@H](NC(=O)Cc2cccnc2)[C@@H](CO)O1,inactive,inactive,inactive
C[C@@H]1CCCCO[C@@H](CN(C)Cc2ccc(C(=O)O)cc2)[C@@H](C)CN([C@@H](C)CO)C(=O)c2cc(NC(=O)Nc3ccccc3)ccc2O1,inactive,inactive,inactive
O=C(C[C@H]1CC[C@H]2[C@@H](COC[C@@H](O)CN2C(=O)c2ccccn2)O1)NC1CCC1,inactive,inactive,inactive
C[C@H]1CN([C@@H](C)CO)C(=O)Cc2cc(NC(=O)Nc3ccccc3)ccc2O[C@H]1CN(C)S(C)(=O)=O,inactive,inactive,inactive
C[C@H]1CCCCO[C@H](CN(C)C(=O)Nc2cccc3ccccc23)[C@@H](C)CN([C@@H](C)CO)C(=O)c2cc(NS(=O)(=O)c3cn(C)cn3)ccc2O1,inactive,inactive,inactive
C[C@H]1CN([C@@H](C)CO)C(=O)CCCn2cc(nn2)CO[C@@H]1CN(C)S(=O)(=O)c1ccc2ccccc2c1,inactive,inactive,inactive
C[C@@H]1CN([C@H](C)CO)C(=O)Cc2cc(NC(=O)CCN3CCOCC3)ccc2O[C@H]1CN(C)S(C)(=O)=O,inactive,inactive,inactive
C[C@@H]1CCCCO[C@H](CN(C)C(=O)C2CCCCC2)[C@H](C)CN([C@@H](C)CO)C(=O)c2cc(NC(=O)CCCCCC(=O)Nc3ccccc3N)ccc2O1,inactive,inactive,inactive
Cc1noc(C)c1NC(=O)Nc1ccc2c(c1)C(=O)N([C@H](C)CO)C[C@@H](C)[C@@H](CN(C)S(C)(=O)=O)O2,inactive,inactive,inactive
CC(C)c1c(C(=O)Nc2ccccc2)c(-c2ccccc2)c(-c2ccc(F)cc2)n1CC[C@@H](O)C[C@@H](O)CC(=O)O,inactive,inactive,inactive
COc1ccc(S(=O)(=O)Nc2cccc3c2O[C@@H](CN(C)S(=O)(=O)c2ccc(OC)cc2)[C@H](C)CN([C@@H](C)CO)C3=O)cc1,inactive,inactive,inactive
C[C@H](CO)N1C[C@H](C)[C@H](CN(C)S(=O)(=O)c2ccc(Cl)cc2)OCCCC[C@H](C)Oc2ccc(NC(=O)Nc3ccccc3)cc2C1=O,inactive,inactive,inactive
C[C@@H]1CCCCO[C@@H](CN(C)C(=O)CCC(F)(F)F)[C@@H](C)CN([C@@H](C)CO)C(=O)c2cc(NC(=O)CCC(F)(F)F)ccc2O1,inactive,inactive,inactive
CN1C(=O)c2cc(NC(=O)Cc3cccs3)ccc2OC[C@H]2O[C@H](CC(=O)NCCc3ccncc3)CC[C@@H]21,inactive,inactive,inactive
Cc1noc(C)c1S(=O)(=O)Nc1ccc2c(c1)C(=O)N([C@H](C)CO)C[C@H](C)[C@H](CN(C)C(=O)Nc1ccc(F)cc1)OCCCC[C@@H](C)O2,inactive,inactive,inactive
C[C@@H]1CN([C@@H](C)CO)C(=O)Cc2cc(NC(=O)Nc3ccc(F)cc3)ccc2O[C@@H]1CN(C)CC1CCCCC1,inactive,active,inactive
C=CCOC(=O)[C@H]1[C@@H]2C(=O)O[C@@H](c3ccccc3)[C@@H](c3ccccc3)N2[C@@H](c2ccc(OCCOC(=O)[C@H]3C[C@H]4C(=O)NCC(=O)N4[C@H]3c3ccc(O)cc3)cc2)[C@]12C(=O)Nc1ccc(I)cc12,inactive,inactive,inactive
C[C@@H]1CN([C@@H](C)CO)C(=O)c2cc(NC(=O)Nc3cccc4ccccc34)ccc2O[C@@H]1CN(C)Cc1ccccc1,inactive,active,inactive
COc1ccccc1CNC(=O)C[C@@H]1CC[C@@H]2[C@H](COC[C@H](O)CN2C(=O)Nc2ccc(Cl)cc2)O1,inactive,inactive,inactive
C[C@H](CO)N1C[C@H](C)[C@@H](CN(C)C(=O)NC2CCCCC2)Oc2c(NC(=O)Nc3ccc(C(F)(F)F)cc3)cccc2C1=O,inactive,active,inactive
Cc1cc(C(=O)Nc2cccc3c2O[C@H](CN(C)Cc2ccc(Oc4ccccc4)cc2)[C@H](C)CN([C@H](C)CO)C3=O)n(C)n1,inactive,inactive,inactive
C[C@@H]1CCCCO[C@@H](CN(C)Cc2ccc(C(F)(F)F)cc2)[C@H](C)CN([C@H](C)CO)C(=O)c2cc(NC(=O)Nc3ccc(F)cc3)ccc2O1,inactive,inactive,inactive
C[C@@H]1CN([C@H](C)CO)C(=O)c2cc(NS(C)(=O)=O)ccc2O[C@@H]1CN(C)Cc1ccc(C(=O)O)cc1,inactive,inactive,inactive
Nc1nnc(-c2cccc(Cl)c2Cl)c(N)n1,inactive,inactive,inactive
